From the RNAGym collection of RNA variant scans (doi:10.1101/gad.245936.114) come the findings set out here.

Variants at the floor of the assay are shown more often than the library holds them.

Sequences and labels used below:
B1: tRNA (parent)
chain: CUCUCGGUAGCCAAGUUGGUUUAAGGCGCAAGACUUUAAUUUAUCACUACGAAAUCUUGAGAUCGGGCGUUCGACUCGCCCCCGGGAGAUUUUUUCCUCGAGCAA

Variants of B1 are the subject of the series. As to the kind of experiment: nonsense suppression (GFP-seq) (ratio to wild type); higher = more function; SUP4oc tRNA, yeast GFP reporter sort-seq. In outline: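 Yeast were grown in raffinose/galactose medium with 80 mg/L adenine, each strain bearing a genome-integrated ochre-suppressor tRNA variant from a ~3% random-mutation library, a galactose-driven GFP ochre reporter, and RFP. After sorting into GFP/RFP bins, every bin was sequenced on an Illumina platform at phred ≥30. The GFPSEQ value, a measure of nonsense suppression, is the weighted bin median GFP/RFP relative to the unmutated parent tRNA, using each variant's estimated cell share per bin as the weight. Only variants with ≥100 reads and ≥30 cells were included.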
On to CUCUCGGUACCCAAGUUGGUUUAAGGGGUAAGACUUUAAUUUAUCACUACGAAAUCUUGAGACCGGGCGUUCGACUCGCCCCCGGGAGAUUUUUUCCUCGAGCAA, for which the nonsense suppression was not above 0.026. The result for CUCUCGGUAGCCAAGUUGGUUUAAGGCGAAAGACUUUAAUUUAUCACUACGAAAUCUUGAGAUCGAGCGUUCGACUCGACCCCGAGAGAUUUUUUCCUCGAGCAA reads not above 0.026; that for CUCUCGGUAACCAAGUUGGUUUAAGGCGCAAGACUUUAAUUUAUCACUACGAAAUCUUGAGAUCGGGCGUUCGACUCGCUCCCGGGAGAUUUUUUCCUCGAGCAA, not above 0.026; that for CUCUCGGUAGCCAAGUUGGUUUAAGGUGCAAGACUUUAAUUUAUCACUACGAAAUCUGGAGAUCGGGCGUUCGACUCGCCCCCGGGAGAUUUUUUCCUCGAGCAA, not above 0.026.

In the case of CUCUCAGUAGCCAAGUUGGUUUAAGGCGCUAGACUUUAAUUUAUCACUACGAAAUCUUGAGAUCGGGCGUUCGACUCGCCCCCGGGAGAUUUUUUCCUCGAGCAA, the nonsense suppression was not above 0.026. As for CUCUCGGUAGCCAAGUUGGUUUAAGGCGGAAGACUUUAAUUUAUCACUACGAAAUCUUGAGAUCCGGCGUUCGACUCGCCCCCGGGAAAUUUUUUCCUCGAGCAA, the nonsense suppression is not above 0.026.

Take AUCUAGGUAGCCAAGUUGGUUUAAGGCGCAAGACUUUAAUUUAUCACUACGAAAUCUUGAGAUCGGGCGUUCGACUCGCCCCCGGGAGAUUUUUUCCUCGAGCAA: the nonsense suppression is not above 0.026. Turning to CUCUCGGUAGCCAAGUUGGUUUAAGGCGCAAGAAUUUAAUUUAUCACUACGAAAUCUUGAGAUCGGGCAUUCGACUCGCCCCCGGGAGAUUUUUUCCUCGAGCAA, the nonsense suppression is not above 0.026.

Regarding CUCUCGGUAGCCAAGUUGGUUUAAGGCGCCCGACUUUAAUUUAUCACUACGAAAUCUUGAGUUCGGGCGUUCGACUCGCCCCCGGGAGAUUUUUUCCUCGAGCAA, the nonsense suppression is not above 0.026. Turning to CUCUCGGUAGCCAAGUUGGUUUAAGGCGCAAGCCUUUAAUUUAUCACUACGAAAUCGUGAGAUGGGGCGUUCGACUCGCCCCCGGGAGAUUUUUUCCUCGAGCAA, the nonsense suppression is not above 0.026. To CUCUCGGUAGCCAAGUUGGUUUAAGGAGCAAGACUUUAAUUUAUCACUACGAAAUCUUGAGAUCGGGCGUUCGACUCGCCCCGCGGAGAUUUUUUCCUCGAGCAA belongs not above 0.026. In the case of CUUUCGGUCGCCAAGUUGGUUUAAGGCGCAAGACUUUAAUUUAUCACUACGAAAUCUUGAGAUCGGGCGUUCGACUGGCCCCCGGGAGAUUUUUUCCUCGAGCAA, the nonsense suppression is not above 0.026.

With CUCUCGGUAGCCUAGUUGGUUUGAGGCGCAAGACGUUAAUUUAUCACUACGAAACCUUGAGAUCGGGCGUUCGACUCGCGCCCGGGAGAUUUUUUCCUCGAGCAA, the nonsense suppression was not above 0.026.

With CUCUCGGUAGCCAGGUUGGUUUAAGGCGCUAGACUUUAAUUUAUCACUACGAAAUCUUGAGAUCCGGCGCUUGACUCGCCCCCGAGAGAUUUUUUCCUCGAGCAA, the nonsense suppression is not above 0.026.

For CUCUCGUUAGCCAGGUUGGUUUAAGGCGCAAGACUUUAAUUUAUCACUACGAAAUCUUGAGAUCGGGCGUUCGAAUCGCCCCCGGGAGAUUUUUUCCUCGAGCAA, the nonsense suppression is not above 0.026. As for CUCUCGGUAGCCACGUUGGUUUAAGGCGCAAGACUUUAAUUUAUCACUACGAAAUCUUGAGAUCGGGCGUUCGAUACGCCCCCGGGAGAUUUUUUCCUCGAGCAA, the nonsense suppression was not above 0.026. On to CUCUCGGUAGCCAAGUUGGUUUAAGGCGCAAGACUUUAAUUUAUCACUACGAAAUCUUGAGCUCGCGUGUUCGACUCGCCCCCGGGAGAUUUUUUCCUCGAGCAA, for which the nonsense suppression was not above 0.026. Take CUCUCUGUAGCCAAGUUGGUUUAAGGCGCAAGACUUUAAUUUAUCACUACGAAAUCUUGAGAUCGGGGGUUCGACUCGCCCCCGGGAGAUUUUUUCCUCGAGCAA: the nonsense suppression is not above 0.026. Turning to CUGUCGGUCGCCAAGUUGGUUUAAGGCGCAAGACUUUAAUUUAUCACUACGAAAUCUUGAGAUCGGGCGUUCGACUCGCCCCCGGGAGAUUUUUUCCUCGAGCAA, the nonsense suppression was not above 0.026.

As for CUCUCGGUCGCCAAGUUGGUUUAAGGCGCAAGACUUUAAUUUAUCACUACGAAAUCUUGUGAUCGGGCGUUCGACUCGCCCCCGGGAGAUUUUUUCCUCGAGCAA, the nonsense suppression came out at 0.575.

With CUCUCGGUAGCCAAGUUGGUUUAAGGUGCAAGACUUUAAUUUAUCACUACGAAAUCUUGAAAUCGGGCGUUCGACUCGCCCCCUGGAGAUUUUUUCCUCGAGCAA, the nonsense suppression was not above 0.026. With CACUCGGUAGCCAAGUUGGUUUAAGGCGCAUGACUUUAAUUUAUCACUACGAAAUCUUGAGAUCGGGCGUUCGACUCGCCCCCGGGAGAUUUUUUCCUCGAGCAA, the nonsense suppression is not above 0.026. For the variant CUCUCGGUAGCCAAGUUGGUUUAAGGCGCAAGACUUUAAUUUAUCACUACGAAAUCUUGAGACCGGGCGUUCGACCCGCCCCCCGGAGAUUUUUUCCUCGAGCAA, the nonsense suppression was not above 0.026.

With CUCUCGGUAGCCAAGUUGGUUUAAUACGCAAGACUUUAAUUUAUCACUACGAAAUCUUGAGAUCGGGCGUUCGCCUCGCCCCCGGGAGAUUUUUUCCUCGAGCAA, the nonsense suppression was not above 0.026. As for CUCUCGGUAGCCAAGUUGGUUUAAGGCGCAAGACGUUAAUUUAUCACUACGAAAUCUUGAGAUCGGGCGUUCGACUCUCGCCCGGGAGAUUUUUUCCUCGAGCAA, the nonsense suppression was not above 0.026. Consider CUCUCGGUAGCCAAGUUGGUUUAAGGCACAAGACUUUAAUUUAUCACUACGAACUCUUGAGAUCGGGUGUUCGACUCGCCCCCGGGAGAUUUUUUCCUCGAGCAA, for which the nonsense suppression was 0.18. As for CUCUCGGUAGCCAAGUUGGUUUAAGGUGCAAGACUUUAAUUUAUCACUACGAAAUCUUGAGAUCGGGCGUUCGACUCGCCCCCGGAAGAUUUUUUCCUCGAGCAA, the nonsense suppression was not above 0.026.
